# Test results reported in PubChem BioAssay AID1240 (Sanford-Burnham Center for Chemical Genomics, 2008).
# Screen size: about 50,000 compounds; about 800 (1.6%) showed an effect of 50% or more. This is one part of the list.
# Target: Bcl-2-like protein 10 (Homo sapiens) (UniProt Q9HD36)
# Test: TR3 peptide-Bcl-B binding displacers, biochemical primary FP assay, phenotype converters (AID 1240);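 also: 0% = Bcl-B with tracer peptide and DMSO and 100% = tracer peptide lacking Bcl-B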
# Conditions: GST-Bcl-B / FITC-TR3 peptide fluorescence polarization; stronger effect = higher value; compound at 3.75 mg/L
# Sequence of UniProt Q9HD36 (Q9HD36 whole entry, looked up): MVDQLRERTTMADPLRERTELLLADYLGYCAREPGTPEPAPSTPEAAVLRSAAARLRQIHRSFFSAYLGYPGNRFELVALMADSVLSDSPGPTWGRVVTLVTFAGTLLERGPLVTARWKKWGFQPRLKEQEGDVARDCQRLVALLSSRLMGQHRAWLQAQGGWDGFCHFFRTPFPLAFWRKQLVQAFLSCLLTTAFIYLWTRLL
row,SMILES,displacement [%]
1,COc1ccccc1C(=O)Nc1ccc2ccccc2c1,-5.1
2,CCOC(=O)C1=C(C)NC(=S)NC1c1c(OC)ccc2ccc(OC)cc12 (centres undefined),0.9
3,O=C(Nc1cccc([N+](=O)[O-])c1)c1ccccc1C(F)(F)F,-3.8
4,O=C(Nc1ccc(S(=O)(=O)Nc2ncccn2)cc1)c1ccc([N+](=O)[O-])cc1,3.7
5,COc1cc(NC(=O)C2CCCCC2)c(OC)cc1Cl,-4.7
6,O=C(Nc1ccccc1C(=O)NC(Cc1ccc(O)cc1)C(=O)O)c1ccccc1 (centres undefined),-11.6
7,COc1ccc(C)cc1NC(=O)/C=C/c1ccccc1,-10.2
8,COc1cc(CN2CCN(Cc3ccncc3)CC2)cc(OC)c1O,-1.5
9,O=C(O)/C=C/C(=O)Nc1ccc(Oc2cccc(Oc3ccc(NC(=O)/C=C/C(=O)O)cc3)c2)cc1,23.7
10,CC(C)C(C(=O)O)N1C(=O)/C(=C/c2ccc(N(C)C)cc2)SC1=S (centres undefined),-103
11,O=C(COc1cccc([N+](=O)[O-])c1)Nc1cccc(-c2nc3ccccc3[nH]2)c1,1.8
12,CCOC(=O)C1=C(O)/C(=C/c2ccc([N+](=O)[O-])cc2)SC1=Nc1cccc(Cl)c1,3.2
13,COC(=O)C1=CN(Cc2ccc(OC)cc2)C=C(C(=O)OC)C1c1ccsc1,-0.6
14,Cc1ccc(NC(=O)CCC(=O)O)c(C)c1,14.4
15,CC(=O)N/N=C/c1cc(C)n(-c2cc(Cl)cc(Cl)c2)c1C,-6.6
16,COc1ccc(CCNC(=O)COc2ccccc2[N+](=O)[O-])cc1OC,12.9
17,CC(=O)N(C1=C(N2CCOCC2)C(=O)c2ccccc2C1=O)C(C)C,6.6
18,O=C(N/N=C/c1cc(Br)ccc1O)c1cc(C2CC2)[nH]n1,-21.3
19,CCOc1ccc(NC(=O)c2ccc(-c3ccc(Cl)cc3)o2)cc1,-6
20,COc1ccc(NC2=CC(=O)CC(C)(C)C2)c(OC)c1,7.4
21,Cc1cc(C)c(C(=O)/C(=C/c2ccc(Cl)cc2)c2ccccc2)c(=O)[nH]1,-8.7
22,CCOc1ccccc1NC(=O)c1c(NC(=O)c2ccccc2Cl)sc2c1CCCCC2,-1.1
23,Cc1ccc(NCc2cccnc2)cc1C,6.9
24,CCCCOc1ccc(NC2=NC3(CCCC3)N=C(N)N2)cc1,-2.2
25,Cc1ccccc1NCC(=O)N/N=C\c1cc([N+](=O)[O-])cc(Br)c1O,-4.4
26,COc1cc(Br)c(/C=N/Nc2ccc(Br)cc2)cc1OC,-4.1
27,COc1ccc(NC2=C(Cl)C(=O)N(c3ccc(C)cc3C)C2=O)cc1,-3.2
28,C#CCOc1cc(Br)c(/C=C2\C(=O)NC(=O)N(c3ccc(C)cc3)C2=O)cc1OC,-20.6
29,C(=N\Nc1ccc2ccccc2n1)/c1ccc(OCc2ccccc2)cc1,-15
